Measurements as given in PubChem BioAssay (NCATS).
The inconclusive results got no clear call from the source; some entries with a clear call stand among them for comparison. A potency beside an inconclusive call is a rough fit, not a confirmed value. Activity calls are given as the source filed them. Calls follow the shape of the dose curve; as a rule, active = well fitted cell-killing curve with a large enough effect; inconclusive = small, poorly fitted or top-dose-only effect, or effect the other way; inactive = no such curve, though single readings can be large or run the other way.

Assay: Viability qHTS for spleen associated tyrosine kinase inhibitor (SYKi) naive MV4-11 cells (AID 1963823); also: nearly all actives have a fitted effect of over 40% in size
Settings: MV4-11 AML viability, CellTiter-Glo luminescence, 72 h; viability (% of control): at 45 µM (top of the series)
How it was run: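 Seeding of 500 SYKi-naive MV4-11 cells per well onto pre-dispensed compounds preceded a 72 hr incubation at 37 C. Luminescent CellTiter-Glo signal, read after 10 min at room temperature, reflected viable cells.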
Potency is read from the fitted curve at half-maximal effect; tags tell the direction and shape of the fitted curve.

Compound	viability (% of control)	Potency
CC1=C(C(=O)O[C@@H]2O[C@H](COC3OCC(O)C(O)C3O)[C@@H](O)[C@H](O)[C@H]2O)C(C)(C)CCC1 (stereo not given in full)	inactive: 61.4% [at 17.3 µM]	–
CCC[C@@H]1C[C@@H](C(=O)N[C@H](C(C)Cl)[C@H]2O[C@H](SC)[C@H](O)[C@@H](O)[C@H]2O)N(C)C1 (stereo not given in full)	inactive: 94.3%	–
CN(C)c1ccc(Nc2c3ccc(NC(=O)CCN4CCCC4)cc3nc3cc(NC(=O)CCN4CCCC4)ccc23)cc1	–	active: 5.17 µM
O=C(NCc1ccccc1)c1ccc2c(=O)n(-c3cccc(C(F)(F)F)c3)c(=S)[nH]c2c1	–	inconclusive: 4.61 µM [cytotoxic, partial curve, poor fit]
O=C1CC2(CCCC2)[C@H](O)C(=O)N1CCCCN1CCN(c2ncccn2)CC1	–	inconclusive: 0.0651 µM [cytotoxic, full curve, poor fit]
CC(=O)O[C@@H]1[C@H](O[C@@H]2OC[C@](O)(CO)[C@H]2O)[C@@H](O[C@@H]2O[C@@H](C)[C@H](O)[C@@H](O)[C@H]2O)[C@H](OC(=O)[C@]23CCC(C)(C)C[C@H]2C2=CCC4[C@@]5(C)C[C@H](O)[C@H](O[C@@H]6O[C@H](C(=O)O)[C@@H](O)[C@H](O)[C@H]6O)[C@@](C)(C(=O)O)C5CC[C@@]4(C)[C@]2(C)CC3)O[C@@H]1C (stereo not given in full)	–	inconclusive: 6.93 µM [cytotoxic, single point]
CCCCOc1nc(N)c2c(n1)N(Cc1cccc(CN3CCCC3)c1)CC(=O)N2	–	inconclusive: 13 µM [cytotoxic, partial curve]
C=C1CC2[C@@]3(C)C=CC(=O)C(C)(C)C3=C(O)C(=O)[C@@]2(C)C2(C(=O)OC)C(=O)C(C)OC(=O)[C@@]12C (stereo not given in full)	–	active: 10 µM
C=C1C(O)CC2C(C(=O)O)=COC(O[C@@H]3O[C@H](COC(=O)/C=C/c4ccc(O)cc4)[C@@H](O)[C@H](O)[C@H]3O)C12 (stereo not given in full)	inactive: 91.5% [at 17.3 µM]	–
C=CC(C)(O)CC/C=C(\C)C(=O)OC1C(O)C(CO)OC(OC(=O)C23CCC(C)(C)CC2C2=CCC4C5(C)CCC(OC6OC(COC7OCC(OC(C)=O)C(O)C7OC7OC(COC(C)=O)C(O)C(O)C7OC(C)=O)C(O)C(O)C6OC6OCC(O)C(O)C6O)C(C)(C)C5CCC4(C)C2(C)C(O)C3O)C1OC1OCC(OC2OCC(O)C(OC3OCC(O)C(O)C3O)C2O)C(O)C1O (stereo not given)	–	active: 0.631 µM
CN(C)CCN1C(=O)c2ccccc2N(C)c2ccccc21	inactive: 83.7%	–
CCc1cc(CC[C@]2(C3CCCC3)CC(O)=C(Cc3nc4nc(C)cc(C)n4n3)C(=O)O2)cc(CC)n1	–	active: 10.3 µM
O=C(O)c1cc(=O)c2ccccc2o1	inactive: 77.8%	–
NCCOCCOCCNC(=O)Cc1ccc(Nc2nc(NCc3ccc(F)cc3)nc(NCC3CCCCC3)n2)cc1	–	active: 2.31 µM
Nc1n[n+]([O-])c2ccccc2[n+]1[O-]	–	inconclusive: 18.6 µM [cytotoxic, partial curve]
Nc1ncnc2c1c(I)cn2C1OC(CO)C(O)C1O (stereo not given)	–	inconclusive: 0.146 µM [cytotoxic, full curve]
CC[C@@H](CO)NCCN[C@@H](CC)CO	–	inconclusive: 18.8 µM [cytotoxic, single point]
O=C(O)CC1CCC(c2ccc(-c3ccc4nc(C(=O)NCc5ccc(OC(F)(F)F)cc5)cn4c3)cc2)CC1 (stereo not given)	inactive: 63.9%	–
c1cc(NC2CCNCC2)nc(-c2cnc3ccccn23)c1	–	inconclusive: 0.0146 µM [cytotoxic, full curve]
CN1CCN(C(=O)CN[C@@H]2C[C@H]2c2ccc(OCc3ccccc3)cc2)CC1	–	active: 25.9 µM

Compound	viability (% of control)	Potency
C[C@@H]1C(=O)OC[C@H]2C(C(=O)O)=C[C@@H]3CC(C)(C)C[C@]312	inactive: 72%	–
Fc1ccccc1CNCc1ccc(-c2ccnc3[nH]ccc23)cc1	–	active: 5.17 µM
COC(=O)c1ccc2c(c1)[nH]c1ncnc(NCCCN3CCCCC3)c12	–	inconclusive: 5.8 µM [cytotoxic, partial curve]
COc1cc2c(cc1OC)[C@@H]1[C@H](O)[C@@H](OC)C=C3CCN(C2)[C@H]31	–	inconclusive: 3.21 µM [cytotoxic, full curve]
CC(C)c1ccc2c(c1)C(O)CC1C(C)(C(=O)O)CCCC21C (stereo not given)	inactive: 65.3%	–
COC(=O)N[C@H](C(=O)N1[C@@H]2CC[C@@H](C2)[C@H]1c1nc2ccc(-c3ccc4c(c3)C(F)(F)c3cc(-c5cnc([C@@H]6CCC7(CC7)N6C(=O)[C@@H](NC(=O)OC)C(C)C)[nH]5)ccc3-4)cc2[nH]1)C(C)C	–	inconclusive: 5.02 µM [cytotoxic, partial curve]
Cc1c(O)cc2c(c1O)COC1(O)CCCOC21 (stereo not given)	–	inconclusive: 11.6 µM [cytotoxic, partial curve, poor fit]
COc1cc(N2CCOCC2)ccc1Nc1ncc(F)c(Nc2ccccc2NS(C)(=O)=O)n1	–	active: 1.64 µM
CC(C#N)C(C)O[C@@H]1O[C@H](CO)[C@@H](O)[C@H](O)[C@H]1O (stereo not given in full)	inactive: 85.6%	–
CC(COc1ccccc1)NN (stereo not given)	inactive: 81.3%	–
S=c1ssc2c1CCC2	inactive: 70.5%	–
CCOC(=O)C1=Cc2ccc(C(F)(F)C(F)(F)F)cc2N=C(N)C1	–	active: 20.6 µM
C=C1CC2OC(=O)C(=C)C2C(OC(=O)/C(C)=C\C)CC2(C)OC1=CC2=O (stereo not given)	–	active: 0.453 µM
Nc1nc(N)c2nc(-c3cccc(O)c3)cnc2n1	–	active: 1.84 µM
N#Cc1ccc(-c2cnc3[nH]cc(NC(=O)c4cccnc4)c3c2)cc1	–	inconclusive: 0.82 µM [cytotoxic, full curve]
O=c1[nH]c(=O)n([C@H]2C[C@H](O)[C@@H](CO)O2)cc1Br	–	inconclusive: 7.5 µM [cytotoxic, partial curve]
COC(=O)CC1(O)C(=O)Nc2ccccc21 (stereo not given)	inactive: 68.8%	–
NC(=O)c1ncn([C@@H]2O[C@H](CO)[C@@H](O)[C@H]2O)c1O	–	inconclusive: 16.8 µM [cytotoxic, single point]
C[N+](C)(C)CC(O)CC(=O)[O-] (stereo not given)	inactive: 86.7%	–
CC1(C)C[C@H]2C=C(C=O)[C@]3(C(=O)O)C[C@]3(C)[C@H]2C1	inactive: 91.1%	–
